# The campaign covered roughly 310,000 compounds. About 14,000 (4.5%) showed an effect of 50% or more. The effect is printed as a negative number. The list shows a part of the results.
# Molecular target: human ether-à-go-go-related gene (hERG) potassium channel (human, UniProt Q12809)
# Assay: primary screen, population patch clamp on CHO cells stably expressing hERG
# 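Note: peak tail current of the secondary pulse compared with the same well before compound.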
# human ether-à-go-go-related gene (hERG) potassium channel, sequence (Q12809 whole entry, looked up): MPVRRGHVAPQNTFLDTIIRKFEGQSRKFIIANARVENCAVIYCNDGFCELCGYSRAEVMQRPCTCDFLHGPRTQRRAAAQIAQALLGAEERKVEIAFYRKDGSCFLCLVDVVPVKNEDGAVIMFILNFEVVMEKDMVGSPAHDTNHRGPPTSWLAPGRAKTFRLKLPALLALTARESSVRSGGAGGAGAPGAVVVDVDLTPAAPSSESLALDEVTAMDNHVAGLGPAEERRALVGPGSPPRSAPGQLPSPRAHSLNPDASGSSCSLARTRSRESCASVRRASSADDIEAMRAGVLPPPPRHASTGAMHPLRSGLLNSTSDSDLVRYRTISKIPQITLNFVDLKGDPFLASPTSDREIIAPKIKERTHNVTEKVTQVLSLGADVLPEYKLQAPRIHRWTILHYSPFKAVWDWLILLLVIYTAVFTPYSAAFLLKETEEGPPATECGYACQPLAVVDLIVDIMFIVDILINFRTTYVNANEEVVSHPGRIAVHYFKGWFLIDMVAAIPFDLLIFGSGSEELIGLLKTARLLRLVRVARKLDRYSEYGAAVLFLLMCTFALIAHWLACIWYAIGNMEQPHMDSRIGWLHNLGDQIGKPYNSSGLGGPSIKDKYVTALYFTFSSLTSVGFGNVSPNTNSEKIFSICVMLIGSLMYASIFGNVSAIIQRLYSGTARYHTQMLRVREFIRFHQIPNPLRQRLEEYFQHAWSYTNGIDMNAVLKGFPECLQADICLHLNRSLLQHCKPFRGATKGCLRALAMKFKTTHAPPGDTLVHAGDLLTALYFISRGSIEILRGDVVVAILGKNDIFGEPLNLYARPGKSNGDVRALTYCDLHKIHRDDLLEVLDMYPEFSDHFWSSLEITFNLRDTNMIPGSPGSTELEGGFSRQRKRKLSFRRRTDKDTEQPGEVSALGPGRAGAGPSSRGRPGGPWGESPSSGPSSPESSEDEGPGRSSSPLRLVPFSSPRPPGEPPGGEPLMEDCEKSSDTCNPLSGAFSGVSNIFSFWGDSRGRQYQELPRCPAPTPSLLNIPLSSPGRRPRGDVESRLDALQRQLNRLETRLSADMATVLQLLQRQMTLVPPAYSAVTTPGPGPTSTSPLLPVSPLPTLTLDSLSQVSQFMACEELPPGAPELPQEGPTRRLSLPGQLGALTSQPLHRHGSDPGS
row,SMILES,"hERG current change (%, negative = inhibition) at 10uM [%]"
1,O=C(Cn1c(C(=O)N2CCc3ccccc3C2)cc2sccc21)c1ccccc1,4.01
2,O=C(NCc1ccncc1)C1CCN(S(=O)(=O)c2ccc(F)cc2)CC1,-9.11
3,CCOC(=O)c1ccc(NC(=O)Nc2ccn(C)n2)cc1,0.444
4,CN(CC(=O)NCc1ccccn1)S(=O)(=O)c1ccc(F)cc1,-9.45
5,CC1=NN(Cc2ccccc2)C(=O)/C1=C/c1ccc(N(C)C)cc1,5.11
6,COc1ccc(-c2nsc(SCC(=O)NCC3CCCO3)n2)cc1 (stereo not shown),11.9
7,CCO/C(C)=C1/SC(=S)NC1=O,3.01
8,CCN(CC(=O)Nc1cc(S(=O)(=O)N2CCCCC2)ccc1C)Cc1ccccc1,-14.6
9,Cc1ccc(C)c(Oc2coc3cc(OC(=O)c4cccs4)ccc3c2=O)c1,0.666
10,CCc1cccc(C)c1NC(=O)CN1CCN(S(=O)(=O)c2ccc(C(C)(C)C)cc2)CC1,-7.39
11,Cc1cc(-c2nc(C)c(C(=O)NN)s2)no1,25.5
12,Cc1ccc(Sc2ncccc2COC(=O)Nc2c(C)cccc2C)cc1,-3.24
13,C/C(N)=C(/C#N)C(=O)COC(=O)c1ccc(C)c(S(=O)(=O)N2CCCCC2)c1,-1.36
14,Cc1cc(NC(=O)COC(=O)c2ccc([N+](=O)[O-])cc2Cl)no1,-8.5
15,CC1CCCCC1NC(=O)CCCCCn1c(=S)[nH]c2ccsc2c1=O (stereo not shown),21.4
16,C=CCN(CC=C)C(=S)Nc1ccc(OC)c(OC)c1,10.3
17,Oc1ccc(Cl)cc1N=Nc1ccccc1,0.302
18,O=C1c2ccccc2NC(c2ccccc2O)N1NS(=O)(=O)c1ccccc1 (stereo not shown),3.28
19,Cc1nonc1NC(=O)CSc1nc2ccccc2cc1C#N,3.73
20,Cc1ccc(-c2nnn(CC(=O)N(Cc3cccs3)C(C(=O)NCC3CCCO3)c3ccco3)n2)o1 (stereo not shown),-24
21,O=c1ccc(Cc2ccccn2)n[nH]1,12.9
22,COc1ccc(NC(=O)c2cc3nc(-c4ccccc4)cc(C)n3n2)cc1OC,-33

row,SMILES,"hERG current change (%, negative = inhibition) at 10uM [%]"
1,CCOC(=O)C1(CCOc2ccccc2)CCN(Cc2cccs2)CC1,-81.8
2,Cn1c(=O)[nH]c(=O)c2c1nc(CN1CCN(c3ccccc3F)CC1)n2CCCc1ccccc1,-33.7
3,O=C(CSc1nnc2c(Cl)cc(C(F)(F)F)cn12)Nc1ccc2c(c1)OCO2,-2.29
4,COC(=O)c1cc(=O)n(-c2c(Cl)cc(C(F)(F)F)cc2Cl)[nH]1,14.8
5,CCOC(=O)C1(c2ccccc2)CCN(CCC(C#N)(c2ccccc2)c2ccccc2)CC1.Cl,-25
6,COCCNC(=O)/C(C#N)=C/c1cc(Br)c(O)c(OC)c1,21.3
7,Cc1ccc(C(=O)NC2CCN(C(=O)NCc3ccccc3)CC2)cc1,-0.364
8,CC(C)CSc1nc2ccccc2n1CC(=O)O,7.22
9,CCOc1ccc(-c2nc(-c3cccnc3)no2)cc1,-7
10,O=C(Nc1cccc2c1C(=O)NC2=O)c1cccc(N2C(=O)CCC2=O)c1,1.35
11,O=C(CNC(=O)c1cccc(F)c1)N/N=C/c1cccs1,17.4
12,C=CCOC(=O)C1=C[C@H](c2coc3ccccc3c2=O)C[C@H](OCCCCO)O1,-42.5
13,CC(C)Oc1ccc(N2CC(C(=O)OCC(=O)NCc3ccccc3)CC2=O)cc1 (stereo not shown),-24.6
14,FC(F)(F)c1cccc(Cn2nnnc2-c2cc(Cl)cc(Cl)c2)c1,-2.3
15,O=S(=O)(Nc1ccc2c(c1)OCCO2)c1cnc[nH]1,7.8
16,O=C(C1CCCN(S(=O)(=O)c2ccccc2)C1)N1CCN(c2ccc(F)cc2)CC1 (stereo not shown),-75.7
17,O=C(c1ccco1)N1CCN(C(=O)c2ccc(-c3ccc(Cl)cc3)o2)CC1,-78.8
18,CC1N/C(=C\C(=O)c2ccccc2)N(O)C1(C)C (stereo not shown),11.8
19,CCOc1ccc(S(=O)(=O)N2CCC(C(N)=O)CC2)c2ccccc12,-15.4
20,O=C(NC1CCCC1)c1cc2cc(Br)ccc2o1,4.63
21,CN(c1ccccc1)S(=O)(=O)c1cccc(NC(=O)CCN2C(=O)C3CCCCC3C2=O)c1 (stereo not shown),-18.4
22,CCN(CC)c1ccc(N2C(=O)/C(=C\c3cccs3)SC2=S)cc1,1.45

row,SMILES,"hERG current change (%, negative = inhibition) at 10uM [%]"
1,COc1ccc(CNS(=O)(=O)c2ccc(-n3cnnn3)c(OC)c2)cc1,-17.9
2,COCCNC(=O)CSc1nc2nc(C)cc(C)n2n1,21.8
3,COc1ccc(C(=O)C[n+]2cccc(Br)c2)cc1.[Br-],5.82
4,Cc1snc(SCc2ccc(F)cc2)c1C#N,1.8
5,COc1ccc(CNC(=O)CCNS(=O)(=O)c2ccc3c(c2)oc(=O)n3C)cc1,7.1
6,COc1ccc(OCC(=O)N2CCN(C(C)C)CC2)cc1.O=C(O)C(=O)O,6.62
7,COc1ccc(NS(=O)(=O)c2ccc(C)c(C(=O)NC3CCN(Cc4ccccc4)CC3)c2)cc1,-51.1
8,CC(=O)N1CCN(C(=O)c2cccc(S(=O)(=O)NCc3ccccc3)c2)CC1,5.5
9,O=C(O)c1cc(-c2ccc3c(c2)OCO3)nc2ccc(Br)cc12,9.07
10,COc1cc(S(=O)(=O)N2CCCC3(CCCCC3)C2)ccc1-n1cnnn1,-8.99
11,CC(C)(C)c1ccccc1NC(=O)N1CCNC(=O)C1CC(=O)Nc1ccc(F)cc1 (stereo not shown),30.6
12,S=c1[nH]c(-c2cccs2)cn1-c1ccccc1,7.46
13,CN(C)S(=O)(=O)c1ccc(NC(=O)Cn2c(-c3ccccc3)noc2=O)cc1,1.23
14,Cn1c(N)c(C(=O)COC(=O)c2ccc(Cl)c(S(=O)(=O)N3CCCC3)c2)c(=O)n(C)c1=O,-43.9
15,CNC(=O)CN(C1CCCCC1)S(=O)(=O)c1ccc(F)cc1,-9.15
16,Cl.O=C(CN1CCCCCC1)Nc1cccc(Br)c1,-47.3
17,COc1ccc2oc(=O)c(C(=O)N3CCN(c4ccccc4)CC3)cc2c1,-15.3
18,O=S1(=O)CCOC[C@H](Cc2ccccc2)N1Cc1ccccc1,-37.8
19,NC1=NC(c2ccccc2)N=C(Nc2ccccc2)N1 (stereo not shown),7.79
20,O=C(NC1CC1)C(=O)c1c(-c2ccccc2)[nH]c2ccccc12,3.36
21,Cc1ccc2c(c1)/C(=C/c1ccccc1)C(=O)N2,3.06
22,Cc1cc(=O)[nH]c(N/N=C/c2c(C)nn(-c3ccccc3Cl)c2Cl)n1,2.67

row,SMILES,"hERG current change (%, negative = inhibition) at 10uM [%]"
1,Cc1ccc(S(=O)(=O)Cn2nnnc2C(CC(C)C)N2CCN(C(=O)c3ccco3)CC2)cc1.Cl (stereo not shown),-38.1
2,Cc1ccc(/C=N/NC(=O)c2n[nH]c3c2CCCC3)cc1,5.09
3,CCc1ccc(S(=O)(=O)N/N=C\c2ccc([N+](=O)[O-])o2)cc1,22.9
4,COc1ccc(NC(=O)CN(C)C(=O)c2cccc(S(=O)(=O)N3CCN(C)CC3)c2)cc1,-4.92
5,Cc1onc(-c2c(Cl)cccc2Cl)c1NC(=O)NNc1ccccn1,-11.7
6,O=C(COc1ccc(Cl)cc1)NCc1cn2cc(Cl)ccc2n1,-21.1
7,CCOC(=O)c1c(NC(=O)Cn2nc(C(F)F)cc2C(F)F)sc(C)c1C,2.58
8,O=C(c1ccc(Br)cc1)N1CCC(C(=O)N2CCN(c3ccccc3)CC2)CC1,-68.5
9,Cn1c2ccccc2c2c(C(=O)N3CCN(C(=O)c4ccco4)CC3)cn(C3CCCCC3)c(=O)c21,-24.8
10,Cc1cc(C)n(-c2ccc(C(=O)NCc3ccc(F)cc3)cc2)n1,-48.7
11,CC1(c2ccc3ccccc3c2)NC(=O)N(CC(=O)N2CCN(c3ccccc3O)CC2)C1=O (stereo not shown),4.12
12,COC(=O)COc1ccc2c(=O)c(-c3ccccc3)coc2c1,12.2
13,C[C@H]1C[C@@H](C)C(=O)[C@@H]([C@H](O)CC2CC(=O)NC(=O)C2)C1,20.2
14,CCOC(=O)c1cc2cc([N+](=O)[O-])cc(OC)c2oc1=O,-6.82
15,COc1ccc(C2(C)NC(=O)N(CC3CCCCC3)C2=O)cc1 (stereo not shown),9.8
16,O=C(c1ccc(Cl)c(S(=O)(=O)NCc2ccccc2)c1)N1CCN(c2ccccn2)CC1,-50.3
17,CC1CCN(c2ccc(C(=O)Nc3nnc(C4CC4)s3)cc2[N+](=O)[O-])CC1,18.8
18,Cc1csc(NC(=O)c2cnccn2)n1,5.47
19,Cc1c(C(=O)N2CCCC2)sc(NC(=O)c2ccc(Cl)cc2)c1C#N,11
20,CN1CCCN(C(=O)C2CCCCC2)CC1,8.68
21,O=P(c1ccccc1)(c1ccccc1)N1CCCCC1,-6.36
22,Cc1ccc(C(=O)/C=C/c2cn(CC(O)CN3CCOCC3)c3ccccc23)cc1 (stereo not shown),-4.11

# Reference: paper PMC4336329 (PLoS ONE, 2015)
